Results on two molecules are retold here after patent WO2020165374A1 (dated 2020).

Experiment [1] deals with T1, human recombinant IL-15 (SinoBiological ref#10360-H07E) (human, UniProt P40933 partial chain).
T1 construct: also called Human IL-15; IL-15 cytokine
The experiment in a line: ELISA, human IL-15 immobilized, anti-human IgG peroxidase detection.

Experiment [2] deals with T2, recombinant human PD-1 (Sino Biologicals, reference 10377-H08H) (human, UniProt Q15116 partial chain).
T2 construct: Bought protein; also called recombinant hPDl; Human recombinant PD-1
T2 sequence (Q15116 25-167 limits assumed): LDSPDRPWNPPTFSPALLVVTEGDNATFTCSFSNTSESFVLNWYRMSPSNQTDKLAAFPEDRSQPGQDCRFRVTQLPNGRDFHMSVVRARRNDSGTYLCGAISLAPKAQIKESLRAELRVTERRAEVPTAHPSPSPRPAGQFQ
The experiment in a line: ELISA, recombinant hPD1 immobilized, anti-human IgG peroxidase detection.

T1 sequence (P40933 49-162 limits assumed, stated change not applied): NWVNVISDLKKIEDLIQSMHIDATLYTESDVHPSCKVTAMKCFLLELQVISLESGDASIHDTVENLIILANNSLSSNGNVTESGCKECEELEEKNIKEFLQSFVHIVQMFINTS

B1: bifunctional molecule anti-PD-1/sushi (other)
heavy: QIQLVQSGSELKKPGASVKVSCKASGYTFTHYAMNWVRQAPGQGLEWMGWINTNTGEPTYAQGFTGRFVFSLDTSVSTAYLQISSLKAEDTAVYYCAREREPGMDNWGQGTLVTVSSASTKGPSVFPLAPCSRSTSESTAALGCLVKDYFPEPVTVSWNSGALTSGVHTFPAVLQSSGLYSLSSVVTVPSSSLGTKTYTCNVDHKPSNTKVDKRV[in this place human IgG4 Fc with S228P L445P (EU numbers)]ITCPPPMSVEHADIWVKSYSLYSRERYICNSGFKRKAGTSSLTECVLNKATNVAHWTTPSLKCIRDPALVHQRPAPPS
light: DVVMTQSPLSLPVTLGQPASISCRSSQSLVHANTNTYLEWYQQRPGQSPRLLIYKVSNRFSGVPDRFSGSGSGTDFTLKISRVEAEDVGVYYCFQGTHVPNTFGQGTKLEIKRTVAAPSVFIFPPSDEQLKSGTASVVCLLNNFYPREAKVQWKVDNALQSGNSQESVTEQDSKDSTYSLSSTLTLSKADYEKHKVYACEVTHQGLSSPVTKSFNRGEC
notes: also called anti-PD-l/sushi; anti-PDl/sushi
For B1, the “fold binding efficacy compared to the IL-15RA Fc protein” value in experiment [1] amounted to 10 fold. The binding result in experiment [2] is given as “binds”.

B2: bifunctional molecule anti-PD-1/IL15Ra (other)
heavy: QIQLVQSGSELKKPGASVKVSCKASGYTFTHYAMNWVRQAPGQGLEWMGWINTNTGEPTYAQGFTGRFVFSLDTSVSTAYLQISSLKAEDTAVYYCAREREPGMDNWGQGTLVTVSSASTKGPSVFPLAPCSRSTSESTAALGCLVKDYFPEPVTVSWNSGALTSGVHTFPAVLQSSGLYSLSSVVTVPSSSLGTKTYTCNVDHKPSNTKVDKRV[in this place human IgG4 Fc with S228P L445P (EU numbers)]ITCPPPMSVEHADIWVKSYSLYSRERYICNSGFKRKAGTSSLTECVLNKATNVAHWTTPSLKCIKPAASSPSSNNTAATTAAIVPGSQLMPSKSPSTGTTEISSHESSHGTPSQTTAKNWELTASASHQPPGVYPQGHSDTT
light: B1 light
notes: also called anti-PD-l/IL-15RA; anti-PDl/IL15-RA
On to B2, for which the “fold binding efficacy compared to the IL-15RA Fc protein” value in experiment [1] came to 10 fold. For the same molecule, the binding result in experiment [2] is given as “binds”.
